According to the supplement of paper PMC10126150:
Values marked as one replicate rest on one cluster of the flow cell; about a third of the high ones do not repeat.

Each sequence was assayed on ATP (assay: switch fluorescence ratio, 500 uM ATP over buffer (Cy3 cluster intensity, sum of 5 cycles each) (fold (ratio)); higher = stronger signal-on switching upon ATP binding; sequences stand for … in TCGTCGGCAGCGTCAGATGTGTATAAGAGACAGTTTTTTTTTTTTTTTTTTTTTTTTT…TC). Conditions: aptamer strand: ATP DNA aptamer (quencher-CACCTGGGGGAGTATTGCGGAGGAAGG + anchor), 100 nM annealed; ATP concentration: 500 uM; one replicate.
How it was run: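 The quencher-labelled ATP aptamer, at 100 nM, was annealed to Cy3-labelled switching-strand clusters on a modified Illumina MiSeq flow-cell. The clusters were imaged in selection buffer, then after 15 min with 500 uM ATP at 22 °C, and this buffer/ATP cycle ran five times with NaOH stripping and re-annealing between runs. Per-cluster fluorescence ratios, summed target-cycle over summed buffer-cycle Cy3 intensity, were averaged per switch-domain sequence. Clusters outside 100-1000 RFU were excluded.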
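Further: ATP exposure 15 min at 22 °C before imaging.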

Row | Sequence | switch fluorescence ratio
1 | CGTGTCGTCG | 1.12
2 | CGTGTGAAGA | 1.04
3 | CGTGTGGGTA | 1.03
4 | CGTGTGTTAT | 0.979
5 | CGTGTTGACC | 1.06
6 | CGTTAAGAAG | 1.01
7 | CGTTAATGAG | 0.989
8 | CGTTACATTC | 1.04
9 | CGTTAGCGTA | 1.01
10 | CGTTAGGGCC | 1
11 | CGTTATATAG | 1.03
12 | CGTTATCGA | 0.987
13 | CGTTATGGTA | 0.956
14 | CGTTATTCGC | 0.968
15 | CGTTCAACTT | 0.997
16 | CGTTCATTA | 1
17 | CGTTCCCTAG | 1.04
18 | CGTTCTCACT | 0.974
19 | CGTTCTCGT | 1
20 | CGTTCTTCAT | 0.992
21 | CGTTGAAAGG | 1.03
22 | CGTTGAATGG | 0.968
23 | CGTTGAATGT | 1
24 | CGTTGATGCG | 1.02
25 | CGTTGATGGA | 0.983
26 | CGTTGCGTCG | 1.01

Row | Sequence | switch fluorescence ratio
27 | CGTTGGAACG | 0.989
28 | CGTTGGCGTA | 0.938
29 | CGTTGGCTTA | 1.04
30 | CGTTGGGATA | 0.95
31 | CGTTGGGGTC | 1.02
32 | CGTTGTATGT | 0.938
33 | CGTTGTCCGA | 1.06
34 | CGTTTAACTT | 1.01
35 | CGTTTAATTA | 0.99
36 | CGTTTACCAT | 0.971
37 | CGTTTATACA | 1.04
38 | CGTTTATTGC | 1.03
39 | CGTTTGGATG | 1.03
40 | CGTTTGTAGG | 0.973
41 | CGTTTGTTAG | 1.04
42 | CGTTTTAATC | 1.05
43 | CGTTTTAGAT | 0.95
44 | CTAAAAACAG | 1.03
45 | CTAACAGACA | 1.01
46 | CTAACGGAGG | 1.02
47 | CTAACGGTGC | 1.09
48 | CTAACTGAAG | 1.04
49 | CTAAGACATG | 1.04
50 | CTAAGACTAG | 0.953
51 | CTAAGCAGAA | 1.12
52 | CTAAGCCCTG | 1.04

Row | Sequence | switch fluorescence ratio
53 | CTAAGCGAGC | 0.999
54 | CTAAGCTT | 0.984
55 | CTAAGGCACA | 1.11
56 | CTAAGGGGTC | 0.998
57 | CTAAGTAAGG | 1.03
58 | CTAAGTGCCT | 1.05
59 | CTAATACGTC | 1.09
60 | CTAATAGATC | 1.01
61 | CTAATCATTT | 1.01
62 | CTAATCGAAA | 0.974
63 | CTAATGTCAA | 1.09
64 | CTAATGTGTG | 0.939
65 | CTAATTACGA | 1
66 | CTAATTCTCG | 1.06
67 | CTAATTGAA | 0.978
68 | CTAATTGAAG | 0.946
69 | CTACAAGTAT | 0.97
70 | CTACACTTAG | 1.05
71 | CTACAGGCT | 1
72 | CTACCAGTTG | 1.19
73 | CTACCATCTC | 1.07
74 | CTACCGCTGA | 3.06
75 | CTACCGTAGA | 1.06
76 | CTACCTAAGT | 1.07
77 | CTACCTGACC | 1.81
78 | CTACCTGGGA | 0.999

Row | Sequence | switch fluorescence ratio
79 | CTACGCGGTA | 1.84
80 | CTACGTATTG | 1.2
81 | CTACGTGGGG | 0.967
82 | CTACTAAGGG | 1.02
83 | CTACTTGTA | 1.01
84 | CTAGAAATGT | 1.02
85 | CTAGAACATG | 0.994
86 | CTAGAATTGC | 1.04
87 | CTAGACAACA | 1.04
88 | CTAGAGAGCA | 1.02
89 | CTAGAGAGTG | 0.981
90 | CTAGAGTTGG | 1.05
91 | CTAGATCGGG | 1.01
92 | CTAGATGGC | 1.15
93 | CTAGATTGCA | 1.05
94 | CTAGCCACCA | 0.957
95 | CTAGCCGGG | 1.11
96 | CTAGCCTCGG | 0.979
97 | CTAGCCTGGG | 0.985
98 | CTAGCGGATG | 0.974
99 | CTAGCGGCGC | 0.93
100 | CTAGCGTCGG | 0.996
101 | CTAGGAAGCG | 1.01
102 | CTAGGACACT | 1.03
103 | CTAGGACTAG | 1.07
104 | CTAGGACTGT | 0.998

Row | Sequence | switch fluorescence ratio
105 | CTAGGATGAG | 1.01
106 | CTAGGCGA | 1.08
107 | CTAGGCTGTT | 1
108 | CTAGGGTCGC | 0.968
109 | CTAGGTAGAT | 0.997
110 | CTAGTAGCGA | 1.43
111 | CTAGTAGCGG | 0.965
112 | CTAGTCAGAT | 1.02
113 | CTAGTCGCGA | 1.04
114 | CTAGTCGGTA | 1
115 | CTAGTCTTGG | 1.02
116 | CTAGTGATA | 1.17
117 | CTATACTAGG | 1
118 | CTATACTCTA | 1.09
119 | CTATAGTTTG | 0.973
120 | CTATATGTGG | 1.04
121 | CTATATTCTT | 0.983
122 | CTATCGGCAC | 1.16
123 | CTATCGGGCC | 1.02
124 | CTATCTGGGC | 0.959
125 | CTATGAAGA | 1.04
126 | CTATGACGCC | 0.924
127 | CTATGATTA | 0.956
128 | CTATGATTAT | 1.01
129 | CTATGTAA | 1
130 | CTATGTAGGG | 1

Row | Sequence | switch fluorescence ratio
131 | CTATGTATAG | 0.966
132 | CTATGTCTGC | 0.985
133 | CTATGTGACA | 0.998
134 | CTATGTGTGT | 0.97
135 | CTATTCAACG | 1.03
136 | CTATTCATTA | 1.56
137 | CTATTCGACG | 0.973
138 | CTATTTGACC | 1.04
139 | CTCAAATAGC | 1.26
140 | CTCAACCATC | 1.06
141 | CTCAATGAAA | 0.981
142 | CTCAATGCTA | 1.15
143 | CTCACCGCTA | 3.45
144 | CTCACGGTGA | 1.13
145 | CTCACTCGAG | 0.975
146 | CTCACTGCT | 1.02
147 | CTCACTTAGT | 1.07
148 | CTCAGACGTA | 1.01
149 | CTCAGCGTTC | 1.29
150 | CTCAGGAGTC | 1.11
151 | CTCAGGCCAT | 1.09
152 | CTCAGGTACT | 1.08
153 | CTCAGTAGAA | 1
154 | CTCAGTATGC | 1.18
155 | CTCAGTCTGT | 1.05
156 | CTCATCTCAT | 1.01

Row | Sequence | switch fluorescence ratio
157 | CTCATTAAGT | 1.02
158 | CTCATTGCAG | 0.987
159 | CTCATTTATA | 0.994
160 | CTCATTTGCT | 0.976
161 | CTCCAAAAAG | 1.1
162 | CTCCAGCGTA | 1.77
163 | CTCCAGGGCG | 1.06
164 | CTCCATCATA | 1.42
165 | CTCCCAGAGT | 1.33
166 | CTCCCCAATT | 3.35
167 | CTCCCGTCAG | 1.52
168 | CTCCCTCTTT | 1.07
169 | CTCCGGATCC | 1.59
170 | CTCCGGGAG | 1.35
171 | CTCCGGTACG | 2.22
172 | CTCCTAAATT | 1.26
173 | CTCCTAATTG | 1.1
174 | CTCCTACCCC | 1.42
175 | CTCCTAGTAG | 1.19
176 | CTCCTGAATG | 1.08
177 | CTCCTGGTTT | 1.25
178 | CTCCTTACAC | 1.57
179 | CTCCTTGAGA | 0.971
180 | CTCGAATAGC | 1.18
181 | CTCGACTCTT | 1.03
182 | CTCGAGTGAT | 1.08

Row | Sequence | switch fluorescence ratio
183 | CTCGATTCGA | 1.04
184 | CTCGCACGAA | 1.12
185 | CTCGCCACG | 1.04
186 | CTCGCGGGAT | 0.984
187 | CTCGCTGATA | 1.22
188 | CTCGCTTGAT | 0.989
189 | CTCGGGTTCT | 0.986
190 | CTCGGTAACG | 1.05
191 | CTCGGTCTAC | 2.06
192 | CTCGGTTATC | 1.19
193 | CTCGTAATAG | 4.53
194 | CTCGTCATGT | 1.01
195 | CTCGTTGGA | 0.984
196 | CTCGTTGTAA | 1
197 | CTCTACATAT | 1.13
198 | CTCTACTCGC | 1.12
199 | CTCTAGCTAA | 1.86
200 | CTCTATTGCG | 1.01
201 | CTCTATTTTT | 1.02
